Data: PubChem BioAssay (NCI)
Values joined by “and” are separate entries in the source; they are usually repeats but may differ in a detail not shown here. Identical values can stand only once.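 Where inhibition never reached the appropriate level, the endpoint shown equals the highest concentration tested. Otherwise, values were interpolated linearly from a five-concentration, 48-hour dose response in 96-well plates. The concentration for 50% growth inhibition is given as GI50. TGI is the concentration that stops growth completely.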

The compounds below were run on NCI-H322M lung (assay: growth of human tumour cells (NCI), 48 h).

Q: Which TGI does the source give for Cc1ccc(C2=C(c3ccccc3)C(O)(c3ccccc3)C(c3ccccc3)=C2c2ccc(C)cc2)cc1 here?
A: > 100 µM

Q: O=Cc1cc2sc(C=O)cc2s1 was tested. Which TGI did it give?
A: > 100 µM

Q: O=C1C2Cc3ccccc3CN2C(=O)N1CN1CCCCC1 (stereo not drawn) was tested. Which TGI did it give?
A: > 100 µM

Q: With C=C1CC2(CC(c3ccccc3C)OC(c3ccccc3C)C2)OC1=O (stereo not drawn) as the compound, how does the TGI read?
A: 28.2 µM

Q: Which results are given for Cc1c(-c2c(F)cc(C(N)=O)c3[nH]c4c(c23)CC[C@H](C(C)(C)O)C4)cccc1-n1c(=O)c2cccc(F)c2n(C)c1=O?
A: GI50: 4.82 µM; TGI: > 100 µM

Q: How did the GI50 turn out when C[C@H]1O[C@@H](O[C@H]2[C@@H](O)C[C@H](O[C@H]3[C@@H](O)C[C@H](O[C@H]4CC[C@]5(C)C6CC[C@]7(C)[C@@H](C8=CC(=O)OC8)CC[C@]7(O)C6CC[C@@H]5C4)O[C@@H]3C)O[C@@H]2C)C[C@H](O)[C@@H]1O (stereo partly drawn) was run?
A: 0.0188 µM

Q: And the TGI?
A: 0.0901 µM

Q: For O=[N+]([O-])c1cc(-c2ccc([As](=O)(O)O)cc2)ccc1[As](=O)(O)O, which TGI is on record?
A: > 100 µM

Q: For O=C(Nc1ccc([N+](=O)[O-])cc1Cl)c1cc(Cl)ccc1O, which GI50 is on record?
A: 0.135 µM and 0.279 µM

Q: What about the TGI of the same compound?
A: 0.444 µM

Q: How did the GI50 turn out when CN1CCN(CCCn2c3c(sc4ncccc43)c(=O)n3nnc(-c4ccccc4)c23)CC1 was run?
A: 1.74 µM

Q: And the TGI?
A: 3.48 µM

Q: With Nc1nc2c(nnn2C2C=C(CO)C(O)C2O)c(=O)[nH]1 (stereo not drawn) as the compound, how does the TGI read?
A: > 100 µM

Q: How did the TGI turn out when O=C1C2=C(c3ccccc31)C(c1ccc([N+](=O)[O-])cc1)NC(=S)N2 (stereo not drawn) was run?
A: > 100 µM

Q: COc1cc2c(cc1OC)C/C(=N\O)c1cc(OC)c(OC)cc1/C=C\2 was tested. Which TGI did it give?
A: > 79 µM

Q: With COC(=O)C1=C(C(=O)OC)SC2(S1)C(C(=O)OC)=C(C(=O)OC)Sc1c2ssc1=O as the compound, how does the TGI read?
A: 24.9 µM

Q: How did the TGI turn out when COc1cc([C@@H]2c3cc4c(cc3[C@H](OC3OC5COC(C(C)C)OC5C(O)C3O)C3COC(=O)[C@@H]32)OCO4)cc(OC)c1OC (stereo partly drawn) was run?
A: 21 µM

Q: How did the GI50 turn out when CCCCCCCC(=O)[O-].N.N.N.N.N.[Co+3].[O-][Cl+3]([O-])([O-])[O-] was run?
A: > 100 µM

Q: What about the TGI of the same compound?
A: > 100 µM

Q: O=C1/C(=C/c2ccc(C(=O)O)cc2)CNC/C1=C\c1ccc(C(=O)O)cc1 was tested. Which TGI did it give?
A: > 100 µM

Q: For CCOC(=O)/C(C(N)=O)=C(/O)c1cnccn1, which TGI is on record?
A: > 100 µM

Q: Which TGI does the source give for Cc1ccc2c(=O)cc(-c3ccccc3)[nH]c2n1 here?
A: > 40.7 µM

Q: For COc1ccc(-c2oc(C=Nc3ccccc3)c([N+](=O)[O-])c2-c2ccc(OC)c(OC)c2)cc1OC, which TGI is on record?
A: > 100 µM

Q: For CC(C)c1cccc(C(C)C)c1NC(=O)/C(Cc1nc2ccc(Cl)cc2[nH]c1=O)=N\NC(=O)C[N+](C)(C)C, which TGI is on record?
A: > 100 µM

Q: For CC1NCCC(CC(=O)O)C1CC(=O)O (stereo not drawn), which TGI is on record?
A: > 100 µM

Q: With C#Cc1cccc(NC(=O)C2CCCCN2C(=O)CCl)c1 (stereo not drawn) as the compound, how does the GI50 read?
A: > 82.5 µM

Q: What about the TGI of the same compound?
A: > 82.5 µM

Q: Which TGI does the source give for C1=Nc2ccc(cc2)-c2ccc(cc2)N=Cc2ccccc2OCc2cccc(n2)COc2ccccc21 here?
A: > 100 µM

Q: C#CCN1C(=O)CN2C(Cl)(Cl)C2(c2ccccc2)c2cc(Cl)ccc21 (stereo not drawn) was tested. Which TGI did it give?
A: > 100 µM

Q: For CCCC(CCC(=O)O)(CCC(=O)O)[N+](=O)[O-], which TGI is on record?
A: > 100 µM

Q: CCN1CC2(CO)CCC(OC)C34C5CC6C(OC)CC(O)(C5C6OC)C(O)(C(OC)C23)C14 (stereo not drawn) was tested. Which TGI did it give?
A: > 375 µM

Q: For CC(C)C(N=C1CC2CCC1(C(=O)Nc1ccccc1O)C2(C)C)c1ccccc1 (stereo not drawn), which TGI is on record?
A: > 10 µM

Q: NC(=O)C1CCCN1Cc1ccc2c(c1)OCO2 (stereo not drawn) was tested. Which TGI did it give?
A: > 100 µM

Q: Cc1cc2nc3c(C)c4ccccc4c(C)n3c2cc1C was tested. Which TGI did it give?
A: > 10 µM

Q: Nc1nc(Cl)cc(OCC2(CO)CCCCC2)n1 was tested. Which TGI did it give?
A: > 100 µM

Q: What does the source list for c1ccc(OCC[P+](c2ccccc2)(c2ccccc2)c2ccccc2)cc1?
A: GI50: 3.95 µM; TGI: 24.5 µM

Q: Which TGI does the source give for Cc1ccc(O)c(C(=O)/C=C/c2ccccc2)c1 here?
A: > 100 µM

Q: How did the TGI turn out when O=C(N/N=C/c1ccc(O)cc1)NNCCO was run?
A: > 100 µM

Q: For Cc1nc2cc3[nH]c4ccccc4c(=O)c3cc2s1, which TGI is on record?
A: > 100 µM

Q: For O=C(O)Cn1cnc2c(=O)[nH]c(Nc3ccccc3)nc21, which TGI is on record?
A: > 100 µM

Q: How did the TGI turn out when CCOC1=C2N=C(C(CC)c3ccc(F)cc3)N=C2C(=O)c2ccccc21 (stereo not drawn) was run?
A: > 100 µM

Q: For Cc1cc(NCCCCCCCCNc2cc(C)nc3cc(N(C)C)ccc23)c2ccc(N(C)C)cc2n1, which TGI is on record?
A: 26.2 µM

Q: How did the GI50 turn out when COc1cc(/C=C/[N+](=O)[O-])cc(OC)c1 was run?
A: 11 µM

Q: What about the TGI of the same compound?
A: 24.4 µM

Q: Clc1ccc(Nc2nnc(COc3ccccc3)c3ccccc23)cc1 was tested. Which GI50 did it give?
A: 1.56 µM

Q: What about the TGI of the same compound?
A: 8.2 µM
